SMILES strings stand for the structures. The list shows a part of the results.

The test has as its system S. aureus RN4220. As to the kind of experiment: growth inhibition call (relative growth <= 0.2). The conditions noted are these: 50 µM.
As to `C[C@H]1CN([C@@H](C)CO)C(=O)c2cc(NS(=O)(=O)c3ccccc3)ccc2O[C@H]1CN(C)S(=O)(=O)c1ccc(F)cc1`, the growth inhibition call is “inactive”.
In the case of `C[C@H](CO)N1C[C@H](C)[C@@H](CN(C)S(=O)(=O)c2cn(C)cn2)OCCCC[C@H](C)Oc2ccc(NC(=O)Nc3cccc4ccccc34)cc2C1=O` it was “inactive”; in that of `COc1ccccc1C#Cc1ccc2c(c1)O[C@H](CN(C)Cc1ccncc1)[C@@H](C)CN([C@H](C)CO)S2(=O)=O`, “inactive”; in that of `COc1cccc(NC(=O)N[C@@H]2CC[C@H](CC(=O)N3CCOCC3)O[C@H]2CO)c1`, “inactive”.
Regarding `O=c1cc(-c2ccccc2)oc2ccc(O)cc12`, the growth inhibition call was “inactive”.
On to `C[C@@H]1CN([C@H](C)CO)C(=O)Cc2cc(NC(=O)Cc3cn(C)c4ccccc34)ccc2O[C@@H]1CN(C)C(=O)Nc1cccc2ccccc12`, for which the growth inhibition call is “inactive”.
Take `COc1cccc(C#Cc2ccc3c(c2)O[C@H](CN(C)S(=O)(=O)c2ccccc2F)[C@@H](C)CN([C@H](C)CO)S3(=O)=O)c1`: the growth inhibition call was “inactive”.
For the molecule `C[C@@H]1CN([C@H](C)CO)C(=O)Cc2cc(NC(=O)Nc3ccc(C(F)(F)F)cc3)ccc2O[C@H]1CN(C)CC1CCCCC1`, the growth inhibition call was “inactive”.
Consider `C[C@@H]1CN([C@@H](C)CO)C(=O)Cc2cc(NC(=O)Nc3ccc(C(F)(F)F)cc3)ccc2O[C@@H]1CN(C)Cc1ccc(Cl)c(Cl)c1`, for which the growth inhibition call is “inactive”.
As to `COc1cccc(S(=O)(=O)N(C)C[C@@H]2Oc3c(NC(=O)Nc4cccc5ccccc45)cccc3C(=O)N([C@@H](C)CO)C[C@H]2C)c1`, the growth inhibition call was “inactive”.
In the case of `CN1C[C@@H](O)COC[C@@H]2O[C@@H](CC(=O)N3CCN(c4ccccc4)CC3)CC[C@H]21` it was “inactive”; in that of `C[C@H](CO)N1C[C@H](C)[C@H](CN(C)C(=O)Nc2ccc3c(c2)OCO3)Oc2ncc(C#CC3(O)CCCC3)cc2C1=O`, “inactive”.
In the case of `C[C@H]1CN([C@@H](C)CO)C(=O)c2cc(NC(=O)Nc3ccccc3)ccc2O[C@H]1CN(C)Cc1ccc(Oc2ccccc2)cc1` it was “inactive”; in that of `C[C@@H]1CN([C@H](C)CO)C(=O)Cc2cc(NS(=O)(=O)c3ccccc3)ccc2O[C@H]1CN(C)S(=O)(=O)c1ccccc1`, “inactive”; in that of `C[C@@H]1CN([C@@H](C)CO)C(=O)Cc2cc(NS(=O)(=O)c3cn(C)cn3)ccc2O[C@@H]1CN(C)CC1CCCCC1`, “inactive”.
For `CC(C)NC(=O)Nc1cccc2c1O[C@H](CN(C)Cc1ccc(Oc3ccccc3)cc1)[C@@H](C)CN([C@@H](C)CO)C2=O`, the growth inhibition call is “inactive”.
Regarding `N[C@@H](CSCc1ccccc1Cl)C(=O)O`, the growth inhibition call is “inactive”.
As to `COc1cccc(NC(=O)N2C[C@@H](O)COC[C@H]3O[C@@H](CC(=O)NCCCN4CCOCC4)CC[C@@H]32)c1`, the growth inhibition call is “inactive”.
Turning to `O=C1c2ccccc2-c2c(-c3ccccc3)nc3ccccc3c21`, the growth inhibition call was “inactive”.
Take `COc1ccc(S(=O)(=O)Nc2ccc3c(c2)C(=O)N([C@H](C)CO)C[C@H](C)[C@H](CN(C)S(=O)(=O)c2cn(C)cn2)O3)cc1`: the growth inhibition call is “inactive”.
For the molecule `O=C(C[C@H]1C[C@H]2c3cc(NS(=O)(=O)c4ccc(F)cc4)ccc3O[C@H]2[C@H](CO)O1)NC1CCCC1`, the growth inhibition call is “inactive”.
Take `COc1ccc(NC(=O)N(C)C[C@H]2Oc3c(NC(=O)Nc4ccc(C(F)(F)F)cc4)cccc3C(=O)N([C@@H](C)CO)C[C@@H]2C)cc1`: the growth inhibition call is “inactive”.
As to `C[C@H]1CN([C@@H](C)CO)C(=O)Cc2cc(NC(=O)Nc3ccc(F)cc3)ccc2O[C@H]1CN(C)S(=O)(=O)c1ccc(Oc2ccccc2)cc1`, the growth inhibition call is “inactive”.
In the case of `CC(C)NC(=O)N(C)C[C@@H]1OCCCC[C@@H](C)Oc2ccc(NS(C)(=O)=O)cc2C(=O)N([C@H](C)CO)C[C@H]1C`, the growth inhibition call is “inactive”.
For the molecule `COc1cccc(CNc2nn[nH]n2)c1OC`, the growth inhibition call is “inactive”.
Then `COc1ccc(S(=O)(=O)Nc2ccc3c(c2)CC(=O)N([C@@H](C)CO)C[C@@H](C)[C@H](CN(C)S(=O)(=O)c2cn(C)cn2)O3)cc1`, with “inactive”.
In the case of `COc1ccc(S(=O)(=O)N(C)C[C@H]2Oc3ccc(NC(=O)CCCN(C)C)cc3CC(=O)N([C@@H](C)CO)C[C@@H]2C)cc1`, the growth inhibition call is “inactive”.
In the case of `COc1cccc(S(=O)(=O)Nc2ccc3c(c2)[C@@H]2C[C@@H](CC(=O)NC4CCCCC4)O[C@H](CO)[C@@H]2O3)c1` it was “inactive”.
As for `C[C@@H]1CN([C@H](C)CO)C(=O)c2cc(NC(=O)Nc3ccc(C(F)(F)F)cc3)ccc2O[C@@H](C)CCCCO[C@@H]1CN(C)C(=O)C1CCCCC1`, the growth inhibition call was “inactive”.
Take `CNC[C@@H]1OCCCC[C@@H](C)Oc2ccc(NC(=O)CCCN(C)C)cc2C(=O)N([C@@H](C)CO)C[C@H]1C`: the growth inhibition call was “inactive”.
